Experimental data as given in a compilation of properties of binary mixtures (doi:10.1016/j.molliq.2017.08.014).
The densities may have been worked out from excess volumes.

Experiment: xn = mol fraction of the nth substance listed
Conditions: 101 kPa

CCOC(C)=O + CCCCn1cc[n+](C)c1.Cl[Fe-](Cl)(Cl)Cl
x2 = 0
Conditions	mass density [kg/m3]
293.15 K	900.6
298.15 K	894.5
303.15 K	888.4
308.15 K	882.2
313.15 K	876
318.15 K	869.7
323.15 K	863.4

CCCCn1cc[n+](C)c1.[Cl][Fe-]([Cl])([Cl])[Cl] + CCOC(C)=O
mass density [kg/m3]
Conditions	x1 = 0.1002	x1 = 0.1999	x1 = 0.3007	x1 = 0.3999	x1 = 0.5	x1 = 0.6001	x1 = 0.7	x1 = 0.7973	x1 = 0.9	x1 = 1
293.15 K	1015.7	1095.8	1160.7	1210.2	1249.1	–	1309	1331.3	1350.6	1369.1
298.15 K	1010.2	1090.7	1155.9	1205.6	1244.7	1277.2	1304.8	–	–	1365
303.15 K	1004.7	1085.7	1151.1	1201	1240.2	–	1300.5	–	1342.3	1360.9
308.15 K	999.2	–	1146.3	–	1235.8	–	1296.3	–	1338.2	–
313.15 K	993.8	–	1141.5	1191.9	1231.4	1264.2	1292.1	–	1334.1	1352.8
318.15 K	988.4	1070.3	–	–	1227	1260	1287.9	1310.5	–	1348.8
323.15 K	983.6	1065	1132	1182.8	1222.6	1255.7	1283.7	1306.4	1326	1344.8
